Some of the results follow.
Tested on: PfHDP1 homeodomain (GST-tagged)
Experiment: gcPBM binding intensity (ln(normalized median fluorescence intensity)); higher = stronger DNA binding
How it was run: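 Plasmodium falciparum DNA-binding domains carrying a GST tag were expressed in E. coli and applied for 1 h, at about 25 μg on average, to an Agilent 4 × 180k array. The array held primer-extended double-stranded 36-bp intergenic genomic probes together with negative controls, and binding took place in 1× PBS with 1% milk, 0.2 mg/ml BSA, 0.5% salmon testes DNA and 0.03% Triton X-100. An Alexa488 anti-GST antibody detected bound protein, and the array was scanned at 488 nm. Binding intensity is taken as the highest Masliner-normalised natural-log median intensity across replicate spots of either probe orientation.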

| Sequence | gcPBM binding intensity (ln) |
| --- | --- |
| AAGTTTTTTTTTAACACACACATAATAAAATAAATA [CACACA_site446] | 6.81 |
| TATATTTATATCCACTTCGTTTAACGCACAGATATA [CACACA_negctrl_site954] | 6.91 |
| TTTTAACAAAAAAAAAGAAAAGAAAAGAAAATAATA [XGTACX_negctrl_site530] | 6.12 |
| TTAACTCTGGAGAAAAGTACATAGTATCTGGTAACA [XGTACX_site4941] | 6.16 |
| TTGAAAAATGAGCACACACACAAATACATACATATT [CACACA_site3231] | 6.86 |
| CAAAAAACAACAGATCGTACAAAATATTATATATAT [XGTACX_site2285] | 7.23 |
| TATCCATATTTGTTCACACACACACCGATTTATATA [CACACA_site5888] | 7.17 |
| AGCATTTTAAGTTATACACACATTTTGAATCTATAT [CACACA_site7599] | 6.62 |
| TGGACAATTGTTTATTGTACTTAAATTTTATGTTCT [XGTACX_site8974] | 6.05 |
| AAGAAATAAAAAGAATGTACACAATATGTATTATAA [XGTACX_site4733] | 6.59 |
| ATAAATAAATAAATAAATAAATATACATATACATAT [CACACA_negctrl_site205] | 6.26 |
| ATGTTACACCGACACACACACATAAAAAAACAAAAA [CACACA_site5750] | 6.9 |
| AAATTATATATATTACGTACATAGAACTTTACAGAA [XGTACX_site6646] | 6.38 |
| TCTTATTCAAACGTAAAACGAAGAAGAAAAAAAAAA [CACACA_negctrl_site149] | 6.02 |
| ATATACTATATTTTAACACACAAAAAAAAAAAATAT [CACACA_site1091] | 6.62 |
| TTTTTTTTGTTCATTGTGCACATTGCTTGCATGGAA [GTGCAC_site9693] | 10.8 |
| AAAATAATAAATAAATGTACATATATATATATATAT [XGTACX_site3078] | 9.32 |
| ATAAGATTATACAATTGTACGTTGTTCAAGATAAGG [XGTACX_site191] | 6.55 |
| GTGTTTGAAAATAAAGCATGCAAATATATTTGAAAT [TGCATGCA_site386] | 7.23 |
| AAATATATTATATGTACACACAAAATTAAGGGATAT [CACACA_site1375] | 7.36 |
| ATATTTTTTAATTTTACACACCATATAAAATAATTC [CACACA_site7339] | 6.62 |
| ATCAATACTTTTTTGGGTACATAAATATATATATAT [XGTACX_site8436] | 8.83 |

| Sequence | gcPBM binding intensity (ln) |
| --- | --- |
| AACTAATTCATGTTATATTAGATAAAAAAAAAAAAA [TGCATGCA_negctrl_site340] | 6.3 |
| AAAAAAAATTAAATAAATAAATATACACATATATAT [GTGCAC_negctrl_site394] | 6.43 |
| CATTAAAATTGAGAGATGCACTTTTTAAGACCTTGT | 6.93 |
| TTTTTTTTTTTTTTTTTTTTACCCCTTTTTCAAAAA [CACACA_negctrl_site1524] | 6.16 |
| AAAACATTGTTTATGTGTACATAATTATATTTACAA [XGTACX_site6926] | 6.63 |
| ATATTATGAATTGTCACACATATATTTAAAAATGTA [CACACA_site4852] | 6.34 |
| TGCATATTACTTTTTCACATAAAAATGATCCGATTA [GTGCAC_negctrl_site526] | 6.49 |
| TAAATATGTGTATGTAGTACATAGTGTTTTTTTTTT [XGTACX_site3748] | 6.43 |
| AAAAAATGACTTAATATGAGCATATATTATGTTGTT [CACACA_negctrl_site1609] | 7.63 |
| AAAATATAAAAATGAAGTACAAAAAAAAAAAAAAAA [XGTACX_site8132] | 6.07 |
| GTTATACACATCAACACACACATACAACGTGGTGTA [CACACA_site6677] | 7.04 |
| TCTAACATATAATATTCACACACATATATATATTAT [CACACA_site8236] | 6.78 |
| TGGTTTCAATAATTAATAAAATATATTATTGTGAAA [CACACA_negctrl_site442] | 5.93 |
| ATAATATATTTATAATGTACAAACCATTTGTATTAA [XGTACX_site4370] | 6.27 |
| ATTATTATTATATTTTGTACATATGTAACAATATAT [XGTACX_site5780] | 6.71 |
| TATATATATATGTGCACACATATATAATATGTATAA [CACACA_site715] | 10.1 |
| AAATAACACATATATACACACATATAACTATAATAT [CACACA_site7298] | 6.88 |
| TATATAAAAATCAATTGTACTTTTTTTTTTTTTTTT [XGTACX_site7327] | 6.07 |
| TATATACAAAAATGCACACGAAAAGTAATATATATA [CACACA_site4173] | 9.89 |
| ATATATAAAATTATATGTACATATATAATATATATA [XGTACX_site529] | 6.84 |
| TAGAACAAATAAAACACACACATATATATATATATG [CACACA_site2768] | 7.01 |
| TTTATTTTTTAATGTTGTACAATGTTGTTTAATCAA [XGTACX_site6489] | 6.48 |

| Sequence | gcPBM binding intensity (ln) |
| --- | --- |
| CATAGGATTATACTTTTGGAATATTATTAAATATGT [XGTACX_negctrl_site75] | 6.19 |
| TTTTTTTCTTTTCAAACACACAATTGGTATATATTA [CACACA_site3320] | 6.88 |
| TCATCCGTTTTAAGAAGTACATATTTGAACATATAA [XGTACX_site8040] | 6.29 |
| ACATGTCAAACATTTGCACACAAAAAAATAAAAATT [CACACA_site691] | 10.2 |
| TTAATACATTAAATATGTACTTATATATCTCAACTA [XGTACX_site3997] | 6.23 |
| ACCTGAAGAGTCAAACGTACAAATATTATAAAATGA [XGTACX_site3188] | 6.32 |
| GTTATATTTTTTTTTTGTACATAATATTGTATTGAC [XGTACX_site6338] | 6.95 |
| ATTAAAAACGGGTGTACACATATATAAATATATATA [CACACA_site4539] | 6.71 |
| AGTAGCATATTCTATTGTACATATATATATATATAT [XGTACX_site2980] | 9.39 |
| TGTATAAAGATATATACACACATATTTATTTATATA [CACACA_site6493] | 6.54 |
| TACAAAATAACTAGCACACATATGTATAAACCTATA [CACACA_site3718] | 6.59 |
| ATATGTATATATGTATGTACGTACAAATTGTTGTAA [XGTACX_site8832] | 7.03 |
| GATGATTATATATATACGCACACTTTTTTTTTTTTT [CACACA_site2652] | 7.22 |
| TATAAATACAGATACACACACACACCGATATATATA [CACACA_site5271] | 6.95 |
| AATATATAAATCTATTGTACATAAAGAGGATAATAA [XGTACX_site1022] | 6.54 |
| TATATATATTTTTATGCACACACAAAGAAAATTTTC [CACACA_site8931] | 10.1 |
| AATACAGATAATACAACACACAAGTAATATAAACCT [CACACA_site5900] | 6.76 |
| TACTTACTTACTTACTCACACACATATACAAAGAAA [CACACA_site3348] | 7.13 |
| AAAAAAAAAAAAAACACACACACAATAGTATATAAA [CACACA_site957] | 6.75 |
| TTGTTACTGTTTTGGTGTACAAAAAAAAAAAATATA [XGTACX_site5762] | 6.44 |
| ATCACAAAATGGAATGTTCTATGATATATATGTATA [XGTACX_negctrl_site460] | 6.26 |
| TGTAAATATTTATTCACACATAATCAATTAGAAAAA [CACACA_site5944] | 6.41 |

| Sequence | gcPBM binding intensity (ln) |
| --- | --- |
| ATTATGCACCAACACACACACACACTCCTAAAAAAT [CACACA_site8822] | 11.7 |
| TCTATACCAGAAAAGGGTACATATTTTGGATTGAAC [XGTACX_site8402] | 6.36 |
| AATATAAATAAAAACACACACAATGGTACATATATA [CACACA_site3671] | 6.85 |
| TAATAATACCCAAGCACACACACACCCATATATATA [CACACA_site4831] | 6.9 |
| ATTGCAAGTTACTTGTGTACTTATAAGATTAAAAGA [XGTACX_site7696] | 7.13 |
| TTTAAATCGTTAAAAACACACAAAAAAAATCAATTA [CACACA_site2519] | 6.52 |
| TACTGTGATAGCACCACACACGCAAAAGTGGGTATA [CACACA_site4749] | 6.59 |
| TATGTAGTTTTAAAGTGTACTTATATATATTAATTG [XGTACX_site378] | 6.28 |
| ATAAATATATATATCACACATATATAATTATATATA [CACACA_site4787] | 6.57 |
| TTTCTTTTAATAATTAAATATTTATTTATGATTATA [TGCATGCA_negctrl_site30] | 6.39 |
| TACATACATATATTATGTACATATTTTATTTTTATT [XGTACX_site1642] | 6.65 |
| AAGCATACATCAAGCACACACACACCCACAGAGACA [CACACA_site4362] | 6.83 |
| AAAAAAAATTCGTGTGTGCGCATATATAATATATAA | 7.73 |
| TTATTTCGAAGAAAATGTACATATATAAATATATAC [XGTACX_site3308] | 6.04 |
| ATAATATTTTTTAATTGTACGTTCCATTTTTTTAAA [XGTACX_site1227] | 6.7 |
| CAACAATTTCGTCATACACACATTCAGAATATAGAT [CACACA_site7166] | 6.63 |
| ATAATAAAAATATATACATGCATTATTATATATATA [TGCATGCA_site799] | 7.31 |
| GATAATTACGGACACACACACACACGCACAACTAAA [CACACA_site7254] | 7.41 |
| ACTATCATTCATAGGTGTACCTAAATATATATATAT [XGTACX_site1696] | 8.78 |
| CGAATATATTCTAGACGTACTATATAATATATATAT [XGTACX_site4953] | 8.02 |
| TTCTTTTAATTACGAGTGCATACCATATGACATTAT [GTGCAC_site9819] | 7.79 |
| AGAAAAGAGAGAAAAACATGCACATGATATTATAAA [TGCATGCA_site120] | 7.53 |

From the supplement of paper PMC11417369
